The results in this text go back to the supplement of paper PMC3334620.

Whole data set: some 33,000 sequences, median “E-score (-0.5 to 0.5)” near -0.016, cut for the highest 2% near 0.31. The list shows a part of the results.

The target of the experiment is Cst6 (UniProt P40535). The experiment can be described thus: PBM E-score (8-mer binding enrichment) (E-score (-0.5 to 0.5)); higher = stronger / more preferred TF binding; most listed sequences are background and not binding sites. The note with it: protein concentration: 200 nM; construct: GST-DNA-binding domain. The procedure, abridged: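 Each ungapped eight-base word and its reverse complement, pooled, received an E-score from the Universal PBM Analysis Suite. Underlying scans, normalised with masliner, recorded fluorescent anti-GST bound to GST-tagged yeast transcription factors. These were applied at about 100-200 nM to universal all-10-mer Agilent arrays double-stranded by primer extension.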
Take CACTATGC: the “PBM E-score” value came to 0.0311.

Consider GTCGTACA, for which the “PBM E-score” value is -0.13.

Regarding ATGCGGAA, the “PBM E-score” value is -0.00494.

Consider CCACACGG, for which the “PBM E-score” value was determined as 0.111.

AACACTAC: the “PBM E-score” value is 0.151.

For the sequence CGGCACAG, the “PBM E-score” value was found to be 0.0861.

Turning to GAGATTTA, the “PBM E-score” value is -0.0359.

Consider ACATGTAG, for which the “PBM E-score” value was 0.208.

For GCCTGGAA, the “PBM E-score” value is -0.08.

In the case of ATATAGCA, the “PBM E-score” value is -0.00398.

Take ACACGCGG: the “PBM E-score” value was 0.126.

As to GCTACACC, the “PBM E-score” value was -0.161.

Turning to CAAACCAA, the “PBM E-score” value was -0.0209.

For AAGTATCA, the “PBM E-score” value was determined as 0.219.

Regarding ATCGTTGG, the “PBM E-score” value is -0.0911.

For AAGATTAC, the “PBM E-score” value was found to be 0.127.

Turning to ACCTGAGG, the “PBM E-score” value was -0.209.

As for GCGATAGA, the “PBM E-score” value is 0.0899.

As to GATCGGAC, the “PBM E-score” value is -0.0973.

As to ATATGCAC, the “PBM E-score” value was determined as 0.0769.

For AGGTGGTC, the “PBM E-score” value is -0.166.

GTTACCCA: the “PBM E-score” value is -0.135.

CCGCAGAG: the “PBM E-score” value was -0.358.

Turning to AACACGAG, the “PBM E-score” value is -0.0109.

ACTGATAT: the “PBM E-score” value worked out at 0.109.

AGCTAACC: the “PBM E-score” value was -0.222.

On to ACACAAAT, for which the “PBM E-score” value stood at 0.243.

Consider AAGCATGG, for which the “PBM E-score” value was -0.048.

As for ATGATGCA, the “PBM E-score” value was 0.362.

For the sequence ATTGCATA, the “PBM E-score” value stood at 0.2.

Turning to CGATAACA, the “PBM E-score” value is -0.00112.

In the case of CAACACTG, the “PBM E-score” value is 0.0167.

CGCTACCC: the “PBM E-score” value is -0.357.

Turning to AAACTGCC, the “PBM E-score” value worked out at 0.0631.

Consider CGTTCAGA, for which the “PBM E-score” value was -0.118.

As to AGTACAAA, the “PBM E-score” value was determined as 0.139.

As for CGGCGATA, the “PBM E-score” value amounted to 0.21.

As for AGGTCGAA, the “PBM E-score” value turned out to be 0.0685.

With GGGTGGCA, the “PBM E-score” value is -0.213.

For GGTCCCAC, the “PBM E-score” value is -0.243.

As to AGACGCGC, the “PBM E-score” value is -0.118.

As for CGACCCGA, the “PBM E-score” value is -0.354.

Turning to AAGAATGT, the “PBM E-score” value is 0.131.

For CCAGGCGG, the “PBM E-score” value was -0.229.

Take CGAGCTCA: the “PBM E-score” value was -0.0803.

As for CAGGTAAG, the “PBM E-score” value is -0.148.

As for AGGCGGTA, the “PBM E-score” value was -0.225.

As to GTAAGCGA, the “PBM E-score” value was determined as 0.12.

In the case of CCATAAAC, the “PBM E-score” value is -0.115.

Take TCCGAGAA: the “PBM E-score” value stood at 0.108.

As for GAATGACA, the “PBM E-score” value came out at 0.259.

For AATAGCGT, the “PBM E-score” value amounted to 0.0923.

Regarding CATACACG, the “PBM E-score” value was 0.188.

For the sequence CTGCAGGA, the “PBM E-score” value is -0.00456.

Consider TTGATAAA, for which the “PBM E-score” value was 0.269.

Regarding ATAACGGG, the “PBM E-score” value was -0.104.

Take ATGAATCA: the “PBM E-score” value stood at 0.117.

Turning to GACAAGTC, the “PBM E-score” value was -0.202.

With CCGTATCA, the “PBM E-score” value came to 0.198.

GCTAATAC: the “PBM E-score” value was 0.0161.

For the sequence CTCTTCCA, the “PBM E-score” value was -0.127.

With ACATTATA, the “PBM E-score” value stood at 0.201.

Consider CACGGGGA, for which the “PBM E-score” value is -0.171.

Take ATTACAAG: the “PBM E-score” value came out at 0.224.

As for GTGGCCTA, the “PBM E-score” value was -0.165.

Turning to CCCTTTCA, the “PBM E-score” value was -0.0909.

ATTAAGGC: the “PBM E-score” value was -0.0196.

Take CACTTTAC: the “PBM E-score” value amounted to 0.103.

On to CTAATCAA, for which the “PBM E-score” value is 0.205.

Consider CGTCTAAC, for which the “PBM E-score” value turned out to be 0.013.

Take AGGACGCC: the “PBM E-score” value was -0.147.

Consider CAGCGAAA, for which the “PBM E-score” value turned out to be 0.0185.

With ATGGGGTG, the “PBM E-score” value was 0.00696.

For the sequence GGTTACGA, the “PBM E-score” value is -0.0441.

Regarding TCTGGTAA, the “PBM E-score” value is 0.126.

Consider CGATAGTC, for which the “PBM E-score” value is 0.0939.

In the case of CGTGGCAA, the “PBM E-score” value was -0.06.

In the case of TCATTTAA, the “PBM E-score” value was determined as 0.282.

Regarding GTACCGAC, the “PBM E-score” value is -0.0475.

In the case of AGAACTCT, the “PBM E-score” value is -0.0631.

In the case of AGGCACCG, the “PBM E-score” value was 0.00483.

Turning to GAGAGGCA, the “PBM E-score” value was 0.0296.

With CCACACCA, the “PBM E-score” value was 0.0287.

For the sequence GTCGCCAC, the “PBM E-score” value is -0.19.

Regarding AAGTAAAC, the “PBM E-score” value is 0.0452.

Take ATGGATAC: the “PBM E-score” value is -0.0649.

AAACAAAG: the “PBM E-score” value came to 0.148.

Regarding AATCGCAA, the “PBM E-score” value came to 0.122.

For the sequence CCTTCGTA, the “PBM E-score” value is 0.0135.

In the case of CTTTCGGC, the “PBM E-score” value was -0.0943.

On to CACATCTG, for which the “PBM E-score” value is -0.134.

In the case of AGTACGGG, the “PBM E-score” value was -0.185.

For the sequence TAAGCTAA, the “PBM E-score” value turned out to be 0.182.

In the case of ATACCGGC, the “PBM E-score” value stood at 0.0155.
